Here are results for 42 sequences from PMC7819943, “Rice protein-binding microarrays: a tool to detect cis-acting elements near promoter regions in rice”.

The other results are listed elsewhere or left out.

The target of the test is T1, OsWOX13 (Oryza sativa, UniProt Q5QMM3 1-267).
T1 sequence: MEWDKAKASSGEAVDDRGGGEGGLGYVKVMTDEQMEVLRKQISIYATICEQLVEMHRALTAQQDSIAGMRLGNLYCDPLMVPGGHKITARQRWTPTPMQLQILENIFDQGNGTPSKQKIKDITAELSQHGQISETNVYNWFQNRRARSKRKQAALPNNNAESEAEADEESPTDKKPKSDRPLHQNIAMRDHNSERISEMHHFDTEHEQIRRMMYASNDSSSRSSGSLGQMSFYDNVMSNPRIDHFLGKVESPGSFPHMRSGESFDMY
The experiment in a line: protein-binding microarray (RPBM); PBS, 2% BSA, 51.3 ng/ul salmon testes DNA, 50 uM zinc acetate, 200 nM TF, 25 C, 1 h; high values mean tight binding. The following applies: protein: recombinant; tags: N-terminal polyhistidine and DsRed monomer fusion (pET32a); label: CyDye5-dUTP incorporated in the synthesized complementary strand; 3' TTTTT single-stranded linker to array surface; dsDNA, one strand shown. The gist of the method: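 Binding signal is reported as fluorescence intensity per feature (arbitrary units) from an Axon 4000B scanner. Incubation used 200 nM of each Ni–NTA-purified, N-terminally polyhistidine- and DsRed-fused transcription factor from E. coli BL21-CodonPlus on a double-stranded custom Agilent array for 1 h at 25 °C, with 50 µM zinc acetate in the buffer, followed by washing.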
Consider “CCGGTCTATCAATTCCCCTTTCTGATACAATAAAATCTGACGGAGTCACCTAGTGCAG”, for which the binding signal was 5080 fluorescence intensity (a.u.).
For “GATGCATATCAATCTAGCATTGCCGGTCAACGTTCTCGAGCGGAGTCACCTAGTGCAG”, the binding signal is 3360 fluorescence intensity (a.u.).
On to “GGGTGACGATTTTGTAATTCGATGACAAGTTGAGGGACCTCGGAGTCACCTAGTGCAG”, for which the binding signal is 3580 fluorescence intensity (a.u.).
Turning to “GTTATTGACAGATGGTTTGAAATTATTAGATAACATATGGCGGAGTCACCTAGTGCAG”, the binding signal was 37300 fluorescence intensity (a.u.).
Take “GGCCTAATTGGCCCACACGGGTCAAAGCCCAAATACCACGCGGAGTCACCTAGTGCAG”: the binding signal is 34200 fluorescence intensity (a.u.).
As to “TTCAAACTTTTAATTTTAGTCAAACTTTCAATTTTGGCGTCGGAGTCACCTAGTGCAG”, the binding signal was 3330 fluorescence intensity (a.u.).
To “GTCAGTTTTAATTATCTACAGTTAAATAGAGAACACGTTCCGGAGTCACCTAGTGCAG” belongs 15300 fluorescence intensity (a.u.); to “TCCCACATTTATATTGATGCATCTAGATTCATTAACATCACGGAGTCACCTAGTGCAG”, 3680 fluorescence intensity (a.u.); to “CATTTCATGACTGATTGCAGGTTGGTGCCCATGGCACTGGCGGAGTCACCTAGTGCAG”, 18500 fluorescence intensity (a.u.).
To “ATGGCTAATTATGGACTAATTAGACTCAAAAGATTCGTTTCGGAGTCACCTAGTGCAG” belongs 19800 fluorescence intensity (a.u.); to “CTAAAATCAATCAACAAGTGCGCGTCTCTGTCGCTGCACTCGGAGTCACCTAGTGCAG”, 31000 fluorescence intensity (a.u.); to “TTTGCCTGTTAATTTCAATCTATTTTGTATACTCTCCTCGCGGAGTCACCTAGTGCAG”, 35500 fluorescence intensity (a.u.).
Consider “TGTTTAAGTTTGTCCTAATTACCTGTCACATTTTCCGTGCCGGAGTCACCTAGTGCAG”, for which the binding signal was 8460 fluorescence intensity (a.u.).
The value for “AATTAATTTACTTAGTATATTGTATTAAACATATAGGCAACGGAGTCACCTAGTGCAG” was 13600 fluorescence intensity (a.u.); that for “TGATGATTTATGGACACCTCCAAAGATGAAACTCATTTTCCGGAGTCACCTAGTGCAG” was 4790 fluorescence intensity (a.u.); that for “TCTAGATTGTAATATTATGGGACGAAGAGAGTAACAAGTCCGGAGTCACCTAGTGCAG” was 7020 fluorescence intensity (a.u.).
As for “CAGAGTAAATTAAACAAGTGACACCCCTATGCGCCTCTACCGGAGTCACCTAGTGCAG”, the binding signal is 8460 fluorescence intensity (a.u.).
As to “TTGTTCCTAAATTGATCATCATATAAGTTTATACACTAAGCGGAGTCACCTAGTGCAG”, the binding signal is 16900 fluorescence intensity (a.u.).
The value for “TCTGATAGCGAAGATTCTGGTGATCAATCGGACCACAGCACGGAGTCACCTAGTGCAG” was 3520 fluorescence intensity (a.u.); that for “AATAAATTGTGTGGAAATTTAGCTTGCCCAATCAGATTGACGGAGTCACCTAGTGCAG” was 16000 fluorescence intensity (a.u.); that for “CCAAATTGGTTGGAAAATACTCCGTATTGTGTGCTGGCCACGGAGTCACCTAGTGCAG” was 32800 fluorescence intensity (a.u.).
To “AGAAAATTGAAATGAGAGTTTCAAAGACATTGTACCTTTTCGGAGTCACCTAGTGCAG” belongs 6360 fluorescence intensity (a.u.); to “TAATCTGCTCACCGTTCTGATTGATCCTAGGTGCTGCATGCGGAGTCACCTAGTGCAG”, 11500 fluorescence intensity (a.u.); to “AAAATAAATTACCGATTCTATCTATAAACTGCGAGACAAACGGAGTCACCTAGTGCAG”, 7910 fluorescence intensity (a.u.).
With “GCCCCTGTTGACTGTTGTTCACATCTCTTTCAGATATTTTCGGAGTCACCTAGTGCAG”, the binding signal was 4760 fluorescence intensity (a.u.).
The value for “GAAATGAGGGGTGGGATTGGGATTGGGATTGGAAAATGAACGGAGTCACCTAGTGCAG” was 10500 fluorescence intensity (a.u.); that for “GAAAATGAATTAGGGGCCCTTTGATTAGCAGGATAGAAAACGGAGTCACCTAGTGCAG” was 5440 fluorescence intensity (a.u.).
On to “TCGAGACAAATTAAACTATCTCGCTCTTTGTGATCAGGATCGGAGTCACCTAGTGCAG”, for which the binding signal is 8400 fluorescence intensity (a.u.).
The value for “AACAAAATTTAAATTTTAGAACTCAGTTTCAAGTTGATTTCGGAGTCACCTAGTGCAG” was 18300 fluorescence intensity (a.u.).
The value for “AGCTGATAAAATAAATTAAATTACTCCCACCAAGCCAAAACGGAGTCACCTAGTGCAG” was 13400 fluorescence intensity (a.u.); that for “CTTCGGTTTTCATGCCTAATTATTGATAGGTGGGCCCCACCGGAGTCACCTAGTGCAG” was 7610 fluorescence intensity (a.u.); that for “AAATGACTAACATTAATTTCTACCACTTTATAGAAGATATCGGAGTCACCTAGTGCAG” was 6240 fluorescence intensity (a.u.).
Regarding “AATTAATTATTAATATGGGGTGCAGTAAATCACAGGATTACGGAGTCACCTAGTGCAG”, the binding signal was 33000 fluorescence intensity (a.u.).
With “ACCACCTAATCTAAATTATTATTTAGTCCCTCCTTCCCAACGGAGTCACCTAGTGCAG”, the binding signal was 10900 fluorescence intensity (a.u.).
The value for “AGGAAATTAATTATAGAATATATAATTATTGTTACTACCCCGGAGTCACCTAGTGCAG” was 32700 fluorescence intensity (a.u.).
To “AGATTTGATTAAAATACTTCCTATACATTCATAATACTCTCGGAGTCACCTAGTGCAG” belongs 16600 fluorescence intensity (a.u.).
To “ACAAAATCTATAGTAATTGCTGATTAAAATCTAGTCCCAACGGAGTCACCTAGTGCAG” belongs 21600 fluorescence intensity (a.u.); to “AATTATATAATTAGGACCGAAAGACTAAAGATTGGTGGCTCGGAGTCACCTAGTGCAG”, 11800 fluorescence intensity (a.u.).
As for “TTTAGACAGATTGTCCGATTCCGTTTCCAGTAGTATGATTCGGAGTCACCTAGTGCAG”, the binding signal is 29800 fluorescence intensity (a.u.).
With “TTAATAATTAGTACATCCGTCTCAAAATGAATCTATCACTCGGAGTCACCTAGTGCAG”, the binding signal is 5990 fluorescence intensity (a.u.).
As for “TCTGACATAGAAAACGAGTTTGCAAACAGTGAGCCCACCTCGGAGTCACCTAGTGCAG”, the binding signal was 3520 fluorescence intensity (a.u.).
As for “CAAATCATGTCATCAAAATAATTACTCCGATCGCTAACACCGGAGTCACCTAGTGCAG”, the binding signal is 6250 fluorescence intensity (a.u.).
